Some of the results follow. At the low end of the ranking the order means little.

For the assay, the target named is MAX:MAX (p21) (UniProt P61244-2). Description: protein-binding microarray (anti-MAX antibody). The conditions noted are these: PBM: 15 mM Tris-HCl pH 7.5, 100 mM KCl, 0.075% NP40, 7.5 mM beta-mercaptoethanol, 375 ng/ul BSA, 8 ng/ul poly(dA-dT):(dA-dT), 550 ng complex, 60 min, room …; high values mean tight binding; double strand, one strand shown; sequences stand for … in CCGGC…TTAATAGCTAAGATTACTATATCGACG
Take TGAGAGTAAGTA: the binding signal (log2 normalized fluorescence) was -0.97. TGAATGCAAGTA returned a binding signal (log2 normalized fluorescence) of 0.000124. In the case of TGATGCCTAGTA it was -0.326; in that of TGAAGTAGTGTA, -0.591. For TGACACCCCGTA, the binding signal (log2 normalized fluorescence) was determined as 0.42. In the case of AACCACGTGGTA it was 3.15. For the sequence TGACCTTCGGTA, the binding signal (log2 normalized fluorescence) is -0.742. In the case of TGATGTCGTGTA it was 0.411; in that of TGAGTCATAGTA, -0.754.

TGAGGTTCTGTA registered a binding signal (log2 normalized fluorescence) of -0.664. In the case of TGAATATTAGTA it was -0.974; in that of TGATCGAAAGTA, -1.03; in that of TGACCGGCAGTA, -0.396. TGAGGAACTGTA gave a binding signal (log2 normalized fluorescence) of -0.9. The value for TGAATCCCCGTA was -0.792. In the case of TGAGCCAGTGTA it was -0.769; in that of TGATGCAGCGTA, -0.0989. The sequence TGATATCACGTA gave a binding signal (log2 normalized fluorescence) of 0.35.

Sequence TGAGTCCCTGTA had a binding signal (log2 normalized fluorescence) of -0.756. The value for TAGCACGTGGTA was 3.44. The value for TGAGGGGCTGTA was 0.788. The value for TGACCCTGCGTA was -0.145; that for TGAATGAGCGTA was -0.36. The sequence TGATTACTTGTA showed a binding signal (log2 normalized fluorescence) of -0.744. In the case of TGACACGTAGTG it was 1.44.

TGACCCGGCGTA yielded a binding signal (log2 normalized fluorescence) of -0.0807.

TGAATGCGGGTA showed a binding signal (log2 normalized fluorescence) of 0.201. The value for TAACTCGTGGTA was 3.08; that for TGATACGCGGTC was -0.432. In the case of TGATCCATGGTA it was 0.313.

AGAAATCTTGTT returned a binding signal (log2 normalized fluorescence) of -0.503. TGAGTCCCAGTA came in with a binding signal (log2 normalized fluorescence) of -1.17. The value for TGACACGTATAA was 0.952; that for TGAGGCCTAGTA was -1.08.

With TGAAGCTCAGTA, the binding signal (log2 normalized fluorescence) is -0.829. In the case of TGATGCTCAGTA it was -0.23; in that of TGAAACGATGTA, -0.0528; in that of TGAGAGTCAGTA, -0.569. In the case of TGACACGTCCAA it was 1.3; in that of TGATCGCCGGTA, -0.623; in that of TGACACGCTGTA, 2.96. Take CGTTACCCTGTG: the binding signal (log2 normalized fluorescence) is -0.0502. The value for TGACGTCTAGTA was -0.552; that for CGACCCGTGGTT was 2.34; that for TGAAAAGCAGTA was -0.672. In the case of TGATCAAGGGTA it was -0.724. In the case of TGAAATCTAGTA it was -1.09; in that of TGAAATCTCGTA, -0.873; in that of TGACACGTACGA, 1.13. As for TGAAGAGTGGTA, the binding signal (log2 normalized fluorescence) turned out to be 0.0783. TGATTCGCGGTA showed a binding signal (log2 normalized fluorescence) of -1.04. TGACCTCCCGTA had a binding signal (log2 normalized fluorescence) of -0.203.

Consider TGATACTGGGTA, for which the binding signal (log2 normalized fluorescence) is -0.4. Sequence TGACTGCACGTA displayed a binding signal (log2 normalized fluorescence) of 0.646. In the case of TGAAATCGAGTA it was -0.775; in that of TGAAATTGAGTA, -1.08; in that of TGATTAATAGTA, -1.05. The value for TGATAGCACGTA was 0.432. The value for TGACGCAACGTA was 0.133; that for TGACAACCCGTA was 0.226. Regarding TGAGATACAGTA, the binding signal (log2 normalized fluorescence) was -0.868. The value for TGACATTTTGTA was -0.64. The value for TGACGCTCAGTA was -0.512; that for TGAGTCTATGTA was -0.843; that for TGATGCATTGTA was 0.5. On to TGACTAAGGGTA, for which the binding signal (log2 normalized fluorescence) was -0.839.

In turn, TGAACACCCGTA gave a binding signal (log2 normalized fluorescence) of 0.108. The value for TGACACCTTGAA was 0.466; that for TGACGCCATGTA was 0.577. On to CCGCACGTGGTA, for which the binding signal (log2 normalized fluorescence) worked out at 3.03. In the case of TAGAACGTGGTA it was 3.26; in that of TGTCATGTGGTA, 3.19. The sequence TGATCCAACGTA gave a binding signal (log2 normalized fluorescence) of -0.546. In the case of TGAGTGCTGGTA it was 0.17; in that of TTACCCGTGGTA, 2.53; in that of TGACACTTGGTA, 0.397. The value for TGAACTATAGTA was -0.954; that for AATTCGGAACAG was 0.061; that for TGACAAGAGGTA was 0.179. In the case of TGAGTCTTGGTA it was -0.883; in that of TGAAGGAATGTA, -0.174; in that of TGAACGAGGGTA, 0.249.

Sequence TGACACGTGTAC registered a binding signal (log2 normalized fluorescence) of 3.15. The value for TGACGTGAGGTA was 0.923; that for TGATTTAGTGTA was -1.06. As for TGACGGTACGTA, the binding signal (log2 normalized fluorescence) was -0.183.

The sequence TGATGCCCAGTA yielded a binding signal (log2 normalized fluorescence) of -0.387. The value for TGACTGGCGGTA was -0.264; that for TGAACATAGGTA was -0.157; that for TGACACGTTGTC was 3.12. As for TGATAGTCTGTA, the binding signal (log2 normalized fluorescence) is -0.885. The value for TGACCGGTAGTA was -0.573; that for TGAAAGGTAGTA was -0.646; that for TGATAATAGGTA was -0.994.

As to TGAAGATTAGTA, the binding signal (log2 normalized fluorescence) was -0.814. The value for TGAGACACTGTA was -0.484; that for TGAGAATAAGTA was -1.12. In the case of TGACAATCAGTA it was -0.489; in that of TAATATGGGGTT, 0.37; in that of TGATAGGCAGTA, -0.788. In the case of TGATTCACTGTA it was -0.711. Turning to TGACTCCTCGTA, the binding signal (log2 normalized fluorescence) was -0.527. In the case of TGACGCGTAGTA it was 0.217; in that of TGACCTAGTGTA, 0.00558.

In the case of TGAGAATTTGTA, the binding signal (log2 normalized fluorescence) was -1.31. The sequence TGAAAAGCGGTA displayed a binding signal (log2 normalized fluorescence) of -0.575. In the case of TTACAGGTGGTA it was 2.91. In the case of TGATGACTAGTA it was -0.165. The value for TGAAGAGCCGTA was -0.64; that for TGAGGGGTAGTA was 0.305; that for CGACTCGGGGTT was -0.0499.

Regarding TGAAGGTGCGTA, the binding signal (log2 normalized fluorescence) was 0.285. The value for TGATCCACTGTA was -0.566; that for TGAATCAAGGTA was -0.372; that for TGACACAGCGTA was -0.0688.

In turn, TGAGATTGTGTA registered a binding signal (log2 normalized fluorescence) of -0.776. The value for TGATTGAGAGTA was -1.33; that for TGAGAGCGTGTA was 2.11. The value for TGAACTGGAGTA was -0.668; that for TGGCAGGTGGTA was 2.58. The value for TGACTACAAGTA was -0.652; that for TGACCTTTTGTA was -0.752; that for TGATGGAAGGTA was -0.0824. On to TGAACGTTAGTA, for which the binding signal (log2 normalized fluorescence) is -0.263. For TGATGCAGTGTA, the binding signal (log2 normalized fluorescence) was -0.158. In the case of TGATGTTCGGTA it was 0.0714; in that of TGATAACTCGTA, -0.352. The value for TGATCTCAGGTA was -1.01; that for TGACTCTATGTA was -0.74; that for TGAGCGGACGTA was -0.884. In the case of TGAGTACGAGTA it was -0.584. Regarding TGACTTTCGGTA, the binding signal (log2 normalized fluorescence) was -0.88. In the case of TGACACGACCTA it was 1.2; in that of TGAGGGGTCGTA, 0.336; in that of GGACACTTGGTA, 0.579. The value for TGACGACTTGTA was -0.501; that for TGTCAGGTGGTG was 3.01.
